Source: the supplement of paper PMC4604168 (melanoma cell lines)
This is one part of the list. Single values are uncertain, as repeats are few or missing.

What was measured:
Experiment in all cases: cell count relative to DMSO control; melanoma cells; higher = more viable cells
Conditions in all cases: library dose: standard library concentration; 72 h
IST-MEL1 = tested on: IST-MEL1
LB2518-MEL = tested on: LB2518-MEL
LOXIMVI = tested on: LOXIMVI
MEL-HO = tested on: MEL-HO
MZ2-MEL = tested on: MZ2-MEL
MeWo = tested on: MeWo
RPMI7951 = tested on: RPMI7951
RVH-421 = tested on: RVH-421
SkMel28 = tested on: SkMel28
SkMel2 = tested on: SkMel2
SkMel30 = tested on: SkMel30
SkMel5 = tested on: SkMel5
UACC257 = tested on: UACC257
UACC62 = tested on: UACC62
WM115 = tested on: WM115
WM1716 = tested on: WM1716
WM1745 = tested on: WM1745
WM3526 = tested on: WM3526
WM3619 = tested on: WM3619
WM451Lu = tested on: WM451Lu
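Also: cells treated in 1,536-well plates, then fixed and DAPI-stained, with nuclei counted from automated high-throughput microscope images.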

Row | Structure (SMILES) | cell count (IST-MEL1) [%] | cell count (LB2518-MEL) [%] | cell count (LOXIMVI) [%] | cell count (MEL-HO) [%] | cell count (MZ2-MEL) [%] | cell count (MeWo) [%] | cell count (RPMI7951) [%] | cell count (RVH-421) [%] | cell count (SkMel28) [%] | cell count (SkMel2) [%] | cell count (SkMel30) [%] | cell count (SkMel5) [%] | cell count (UACC257) [%] | cell count (UACC62) [%] | cell count (WM115) [%] | cell count (WM1716) [%] | cell count (WM1745) [%] | cell count (WM3526) [%] | cell count (WM3619) [%] | cell count (WM451Lu) [%]
1 | CCN(CC)CCCCNc1ncc2cc(-c3cc(OC)cc(OC)c3)c(NC(=O)NC(C)(C)C)nc2n1 + O=c1cc(-c2cccc3c2Sc2ccccc2S3)oc(N2CCOCC2)c1 [KU55933] (first compound 0.5 µM, partner dose 5 µM) | 118 | 109 | 82.3 | 98 | 107 | 64.7 | 73.3 | 93.3 | 134 | 85.8 | 109 | 104 | 121 | 114 | 90.4 | 92.4 | 82.8 | 70.3 | 77.4 | 112
2 | COc1ccc2c(c1)CCC1C2CCC2(C)C(NCCCCCCN3C(=O)C=CC3=O)CCC12 (stereo not given) + CCCCCCCCCCCC1=C(O)C(=O)C=C(O)C1=O [Embelin] (first compound 2 µM, partner dose 6 µM) | 67.4 | 18.6 | 104 | 42.9 | 45.3 | 77.3 | 70.8 | 59.8 | 47.3 | 35.5 | 101 | 81.5 | 87.7 | 99.2 | 77.3 | 88.1 | 83.6 | 89.5 | 68.2 | 117
3 | COc1cc2ncnc(Nc3ccc(Oc4ccccc4)cc3)c2cc1OC + Cc1cc([N+](=O)[O-])ccc1NS(=O)(=O)c1cc(Cl)ccc1Cl [FH535] (first compound 10 µM, partner dose 5 µM) | 50.8 | 107 | 51.4 | 43.8 | 48 | 61.7 | 55.1 | 43.8 | 57.2 | 72.9 | 78.2 | 39.2 | 56.9 | 80.9 | 60.3 | 55.7 | 50.2 | 46.2 | 50.7 | 64.2
4 | N#Cc1c(O)c2c(-c3ccc(-c4ccccc4O)cc3)csc2[nH]c1=O + COc1cc(N2CCC(N3CCN(C)CC3)CC2)ccc1Nc1ncc(Cl)c(Nc2ccccc2S(=O)(=O)C(C)C)n1 [NVP-TAE684] (first compound 10 µM, partner dose 0.4 µM) | 91.2 | 106 | 103 | 86.1 | 101 | 83.7 | 91.6 | 143 | 76.8 | 74.7 | 123 | 71 | 89.6 | 114 | 131 | 99.2 | 65.7 | 74.6 | 93 | 80.1
5 | COc1cc2ncnc(Nc3ccc(Oc4ccccc4)cc3)c2cc1OC + O=C(O)C(=O)Nc1sc2c(c1C(=O)O)CCNC2 [TCS401] (first compound 10 µM, partner dose 8.33333 µM) | 97.4 | 221 | 115 | 93.1 | 108 | 78.8 | 118 | 146 | 77.9 | 109 | 120 | 94.5 | 97.5 | 104 | 86.4 | 85.2 | 70.6 | 73.1 | 82.6 | 102
6 | Cc1cc([N+](=O)[O-])ccc1NS(=O)(=O)c1cc(Cl)ccc1Cl + c1cc(-c2cnn3cc(-c4ccc(OCCN5CCCCC5)cc4)cnc23)ccn1 [Dorsomorphin] (first compound 5 µM, partner dose 2 µM) | 55.4 | 46.6 | 71.6 | 55.3 | 61.1 | 60 | 87.8 | 57.1 | 41.5 | 88.5 | 95 | 42.4 | 50.6 | 93.2 | 55.4 | 59.9 | 62.5 | 68.2 | 67.7 | 84.8
7 | c1cc(-c2cnn3cc(-c4ccc(OCCN5CCCCC5)cc4)cnc23)ccn1 [Dorsomorphin] + O=c1cc(-c2cccc3c2Sc2ccccc2S3)oc(N2CCOCC2)c1 [KU55933] (first compound 2 µM, partner dose 5 µM) | 86.3 | 60.3 | 233 | 80.1 | 63.3 | 59.8 | 61.2 | 128 | 61.9 | 101 | 101 | 68.8 | 81.8 | 71.8 | 63.6 | 73.5 | 77 | 65 | 97.4 | 75.6
8 | Oc1cc(-c2nc(-c3ccccc3)[nH]c2-c2ccncc2)ccc1Cl + COc1cc(N2CCC(N3CCN(C)CC3)CC2)ccc1Nc1ncc(Cl)c(Nc2ccccc2S(=O)(=O)C(C)C)n1 [NVP-TAE684] (first compound 1 µM, partner dose 0.4 µM) | 95.2 | 68.7 | 87.4 | 84.5 | 98.1 | 58.2 | 71.3 | 75.9 | 35.1 | 7.09 | 102 | 58.9 | 93.6 | 41.2 | 41.8 | 65.4 | 23.3 | 39.9 | 63.4 | 52.3
9 | O=S(=O)(c1ccccc1)N(CC(F)(F)F)c1ccc(C(O)(C(F)(F)F)C(F)(F)F)cc1 + COc1cc2ncnc(Nc3ccc(Oc4ccccc4)cc3)c2cc1OC [SrcI1] (first compound 7 µM, partner dose 10 µM) | 80.5 | 78 | 78.1 | 77 | 70 | 74.7 | 23.4 | 99.9 | 68.4 | 87.9 | 71.4 | 66.8 | 59.2 | 74.5 | 66.4 | 68.7 | 50.9 | 63 | 59.6 | 70.5
